Results taken from the supplement of paper PMC8728848.
Some of the results follow.

Key:
Experiment in all cases: glycan array binding signal (z-score within array); higher = stronger binding
Conditions in all cases: glycan notation: IUPAC condensed, linker removed
[1] = target: Fuc(a1-2)Gal(b1-4)GlcNAc(b1-3)Gal(b1-4)GlcNAc(b1-3)Gal(b1-4)GlcNAc
Procedure, shortened: (§1)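 Negative Z-scores can be read as non-binding. The Z-score is calculated within each array and then averaged across arrays of one protein sequence at different concentrations or buffers and across linkers. Arrays, 3228 in all, were curated from the Consortium for Functional Glycomics database and kept only where the protein sequence was available.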

[2] = target: Fuc(a1-2)Gal(b1-4)GlcNAc(b1-3)GalNAc
Procedure, shortened: as §1

[3] = target: Fuc(a1-2)Gal(b1-4)GlcNAc(b1-3)[Fuc(a1-2)Gal(b1-4)GlcNAc(b1-6)]GalNAc
Procedure, shortened: as §1

[4] = target: Fuc(a1-2)Gal(b1-4)GlcNAc(b1-3)[Fuc(a1-3)[Gal(b1-4)]GlcNAc(b1-6)]Gal(b1-4)Glc
Procedure, shortened: as §1

[5] = target: Fuc(a1-2)Gal(b1-4)GlcNAc(b1-6)GalNAc
Procedure, shortened: as §1

[6] = target: Fuc(a1-2)Gal(b1-4)GlcNAc6S
Procedure, shortened: as §1

[7] = target: Fuc(a1-2)Gal(b1-4)[Fuc(a1-3)]GlcNAc
Procedure, shortened: as §1

[8] = target: Fuc(a1-2)Gal(b1-4)[Fuc(a1-3)]GlcNAc(b1-2)Man(a1-3)[Fuc(a1-2)Gal(b1-4)[Fuc(a1-3)]GlcNAc(b1-2)Man(a1-6)]Man(b1-4)GlcNAc(b1-4)[Fuc(a1-6)]GlcNAc
Procedure, shortened: as §1

[9] = target: Fuc(a1-2)Gal(b1-4)[Fuc(a1-3)]GlcNAc(b1-2)[Fuc(a1-2)Gal(b1-4)[Fuc(a1-3)]GlcNAc(b1-4)]Man(a1-3)[Fuc(a1-2)Gal(b1-4)[Fuc(a1-3)]GlcNAc(b1-2)Man(a1-6)]Man(b1-4)GlcNAc(b1-4)GlcNAc
Procedure, shortened: as §1

[10] = target: Fuc(a1-2)Gal(b1-4)[Fuc(a1-3)]GlcNAc(b1-3)Gal(b1-4)[Fuc(a1-3)]GlcNAc
Procedure, shortened: as §1

[11] = target: Fuc(a1-2)Gal(b1-4)[Fuc(a1-3)]GlcNAc(b1-3)Gal(b1-4)[Fuc(a1-3)]GlcNAc(b1-3)Gal(b1-4)[Fuc(a1-3)]GlcNAc
Procedure, shortened: as §1

[12] = target: Fuc(a1-2)Gal(b1-4)[Fuc(a1-3)]GlcNAc(b1-3)GalNAc
Procedure, shortened: as §1

[13] = target: Fuc(a1-2)Gal(b1-4)[Fuc(a1-3)]GlcNAc(b1-3)[Neu5Ac(a2-6)Gal(b1-4)GlcNAc(b1-6)]Gal(b1-4)Glc
Procedure, shortened: as §1

[14] = target: Fuc(a1-2)Gal3S(b1-4)GlcNAc
Procedure, shortened: as §1

[15] = target: Fuc(a1-2)Gal6S(b1-3)GlcNAc
Procedure, shortened: as §1

[16] = target: Fuc(a1-2)Gal6S(b1-3)GlcNAc6S
Procedure, shortened: as §1

Fuc(a1-2)Gal6S(b1-4)Glc = target: Fuc(a1-2)Gal6S(b1-4)Glc
Procedure, shortened: as §1

[17] = target: Fuc(a1-2)Gal6S(b1-4)Glc6S
Procedure, shortened: as §1

Fuc(a1-2)[Gal(a1-3)]Gal = target: Fuc(a1-2)[Gal(a1-3)]Gal
Procedure, shortened: as §1

[18] = target: Fuc(a1-2)[Gal(a1-3)]Gal(b1-3)GalNAc
Procedure, shortened: as §1

[19] = target: Fuc(a1-2)[Gal(a1-3)]Gal(b1-3)GalNAc(b1-3)Gal(a1-4)Gal(b1-4)Glc
Procedure, shortened: as §1

[20] = target: Fuc(a1-2)[Gal(a1-3)]Gal(b1-3)GlcNAc
Procedure, shortened: as §1

[21] = target: Fuc(a1-2)[Gal(a1-3)]Gal(b1-3)GlcNAc(b1-2)Man(a1-3)[Fuc(a1-2)[Gal(a1-3)]Gal(b1-3)GlcNAc(b1-2)Man(a1-6)]Man(b1-4)GlcNAc(b1-4)GlcNAc
Procedure, shortened: as §1

[22] = target: Fuc(a1-2)[Gal(a1-3)]Gal(b1-3)GlcNAc(b1-2)Man(a1-3)[Fuc(a1-2)[Gal(a1-3)]Gal(b1-3)GlcNAc(b1-2)Man(a1-6)]Man(b1-4)GlcNAc(b1-4)[Fuc(a1-6)]GlcNAc
Procedure, shortened: as §1

[23] = target: Fuc(a1-2)[Gal(a1-3)]Gal(b1-3)GlcNAc(b1-3)GalNAc
Procedure, shortened: as §1

[24] = target: Fuc(a1-2)[Gal(a1-3)]Gal(b1-3)GlcNAc(b1-6)GalNAc
Procedure, shortened: as §1

[25] = target: Fuc(a1-2)[Gal(a1-3)]Gal(b1-4)Glc
Procedure, shortened: as §1

[26] = target: Fuc(a1-2)[Gal(a1-3)]Gal(b1-4)GlcNAc
Procedure, shortened: as §1

[27] = target: Fuc(a1-2)[Gal(a1-3)]Gal(b1-4)GlcNAc(b1-2)Man
Procedure, shortened: as §1

[28] = target: Fuc(a1-2)[Gal(a1-3)]Gal(b1-4)GlcNAc(b1-2)Man(a1-3)[Fuc(a1-2)[Gal(a1-3)]Gal(b1-4)GlcNAc(b1-2)Man(a1-6)]Man(b1-4)GlcNAc(b1-4)GlcNAc
Procedure, shortened: as §1

B1: Cohesin-marm-DC-ASGPR-CRD (protein)
chain: LDITSHHHHHHDDLDAVRIKVDTVNAKPGDTVRIPVRFSGIPSKGIANCDFVYSYDPNVLEIIEIEPGDIIVDPNPDKSFDTAVYPDRKIIVFLFAEDSGTGAYAITKDGVFATIVAKVKEGAPNGLSVIKFVEVGGFANNDLVEQKTQFFDGGVNVGDTTEPATPTTPVTTPTTTDDLDAASCPINWVEHQGSCYWFSRSGKTWPEAERYCQLENTHLVVINSREEQNFVQAHLGSAYTWMGLSDPEGVWKWVDGTDYSSGFQNWKPGQPDDWQGHGLGGGEDCAHFHPDGRWNDDVCQRSYHWVCEAGLTQASQDSH
With B1 the “glycan array binding signal (z-score)” value [1] was -0.447, the “glycan array binding signal (z-score)” value [2] was -0.411 and the “glycan array binding signal (z-score)” value [3] was 0.02. The “glycan array binding signal (z-score)” value [4] was -0.447, the “glycan array binding signal (z-score)” value [5] was 2.67 and the “glycan array binding signal (z-score)” value [6] was -0.446. For the same binder, the “glycan array binding signal (z-score)” value [7] was -0.4, the “glycan array binding signal (z-score)” value [8] was -0.369 and the “glycan array binding signal (z-score)” value [9] was -0.323. The “glycan array binding signal (z-score)” value [10] was -0.429, the “glycan array binding signal (z-score)” value [11] was -0.35 and the “glycan array binding signal (z-score)” value [12] was -0.343. For the same binder, the “glycan array binding signal (z-score)” value [13] was -0.455, the “glycan array binding signal (z-score)” value [14] was -0.453 and the “glycan array binding signal (z-score)” value [15] was -0.408. For the same binder, the “glycan array binding signal (z-score)” value [16] was 0.194, the “glycan array binding signal (z-score)” value (Fuc(a1-2)Gal6S(b1-4)Glc) was -0.449 and the “glycan array binding signal (z-score)” value [17] was -0.428. The “glycan array binding signal (z-score)” value (Fuc(a1-2)[Gal(a1-3)]Gal) was -0.429, the “glycan array binding signal (z-score)” value [18] was -0.443 and the “glycan array binding signal (z-score)” value [19] was -0.453. The “glycan array binding signal (z-score)” value [20] was -0.102, the “glycan array binding signal (z-score)” value [21] was -0.416 and the “glycan array binding signal (z-score)” value [22] was -0.434. For the same binder, the “glycan array binding signal (z-score)” value [23] was -0.456, the “glycan array binding signal (z-score)” value [24] was 2.81 and the “glycan array binding signal (z-score)” value [25] was -0.171. The “glycan array binding signal (z-score)” value [26] was -0.43, the “glycan array binding signal (z-score)” value [27] was -0.426 and the “glycan array binding signal (z-score)” value [28] was -0.419.
